Measured values: PMC4336329 (PLoS ONE, 2015)
About 2,200 (0.71%) of roughly 310,000 compounds showed an effect of 50% or more. The effect is printed as a negative number. The list shows a part of the results.

The compounds below were run against human ether-à-go-go-related gene (hERG) potassium channel (human, UniProt Q12809) (assay: primary screen, population patch clamp on CHO cells stably expressing hERG).
Sequence of human ether-à-go-go-related gene (hERG) potassium channel (Q12809 whole entry, looked up): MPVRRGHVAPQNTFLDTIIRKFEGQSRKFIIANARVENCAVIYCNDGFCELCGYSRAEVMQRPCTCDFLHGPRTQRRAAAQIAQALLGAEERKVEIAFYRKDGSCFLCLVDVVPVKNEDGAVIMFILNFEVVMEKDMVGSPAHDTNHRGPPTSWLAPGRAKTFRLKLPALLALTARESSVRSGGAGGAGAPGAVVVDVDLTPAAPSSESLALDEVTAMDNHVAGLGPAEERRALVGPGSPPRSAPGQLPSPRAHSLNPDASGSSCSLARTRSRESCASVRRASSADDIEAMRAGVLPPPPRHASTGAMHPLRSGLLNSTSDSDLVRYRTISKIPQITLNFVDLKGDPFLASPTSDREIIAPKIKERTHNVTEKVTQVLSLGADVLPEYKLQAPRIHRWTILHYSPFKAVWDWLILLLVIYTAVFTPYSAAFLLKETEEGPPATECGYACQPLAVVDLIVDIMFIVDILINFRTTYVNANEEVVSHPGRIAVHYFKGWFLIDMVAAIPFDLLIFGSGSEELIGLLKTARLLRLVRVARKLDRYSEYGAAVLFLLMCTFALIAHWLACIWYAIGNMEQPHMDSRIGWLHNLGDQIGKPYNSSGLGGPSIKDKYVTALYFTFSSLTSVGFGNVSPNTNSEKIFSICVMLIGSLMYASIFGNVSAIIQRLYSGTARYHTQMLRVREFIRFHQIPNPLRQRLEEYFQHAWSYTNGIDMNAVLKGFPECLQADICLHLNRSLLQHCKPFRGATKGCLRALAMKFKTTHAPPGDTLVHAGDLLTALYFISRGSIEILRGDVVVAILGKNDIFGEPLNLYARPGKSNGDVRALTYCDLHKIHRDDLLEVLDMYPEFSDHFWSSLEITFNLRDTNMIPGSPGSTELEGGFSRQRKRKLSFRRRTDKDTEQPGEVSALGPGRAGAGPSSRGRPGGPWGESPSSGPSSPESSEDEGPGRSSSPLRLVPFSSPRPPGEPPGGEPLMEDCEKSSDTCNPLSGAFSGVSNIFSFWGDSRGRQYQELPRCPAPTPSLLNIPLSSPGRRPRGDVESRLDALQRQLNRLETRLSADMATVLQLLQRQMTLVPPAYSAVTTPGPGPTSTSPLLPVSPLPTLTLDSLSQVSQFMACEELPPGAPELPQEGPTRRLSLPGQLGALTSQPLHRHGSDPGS

SMILES	hERG current change (%, negative = inhibition) at 1uM [%]
CCCCn1c2c(c(=N)c3c1CCC3)CCC2.I	5.32
COc1cc(/C=C/C(=O)OCC(=O)N(C)Cc2ccccc2)ccc1O	22.9
COc1ccc(-c2nc(CS(=O)(=O)CC(=O)NCCc3ccc(C)cc3)c(C)o2)cc1	9.96
Cc1sc2ncnc(Nc3ccccc3)c2c1C	6.07
COc1ccc(OCc2nnc(SCC(=O)Nc3cccc(Cl)c3)o2)cc1	11.5
CC(Oc1cccc([N+](=O)[O-])c1)C(=O)NCCC1=CCCCC1 (stereo not drawn)	-2.17
Cc1nc2c(C(=O)NCCC3=CCCCC3)c[nH]n2c(=O)c1Cl	12.2
Cc1cc(C(=O)CSc2nnnn2-c2ccc(O)cc2)c(C)n1Cc1ccc2c(c1)OCO2	1.52
S=C(Nc1cccnc1)N1CCN(c2ccccc2Cl)CC1	14.9
O=C(c1ccc(F)cc1)N1CCC(C(=O)N2CCN(Cc3ccc4c(c3)OCO4)CC2)CC1	4.61
Cc1ccc(NC(=O)COC(=O)/C=C/c2cccc(Cl)c2)cc1S(=O)(=O)N1CCOCC1	2.59
CSc1nnc(CNC(=O)c2ccccc2)n1-c1cccc(C)c1	8.93
CCOC(=O)N1CCN(c2nnc(-c3ccc(C)cc3)c3ccccc23)CC1	2.25
Cc1ccc(-c2nnc(SCC(=O)NC3CCS(=O)(=O)C3)nc2-c2ccc(C)cc2)cc1 (stereo not drawn)	8.3
Cn1c(=O)c2c(nc(NCc3ccc4c(c3)OCO4)n2Cc2ccccc2F)n(C)c1=O	2.18
CC1CC(=O)NN=C1c1ccc(N)c([N+](=O)[O-])c1 (stereo not drawn)	10.4
Cc1ccc2cc(C=C(C#N)C#N)c(Cl)nc2c1	5.12
O=C(CCn1cnc2ccccc2c1=O)Nc1nc(-c2ccc(Br)cc2)cs1	7.93
O=C(COc1ncnc2c(Cl)cc(Cl)cc12)NCCC1=CCCCC1	10.1
NC(=O)C[n+]1cccc2ccccc21.[I-]	2.63
CCc1ccc(OC(C)C(=O)Nc2ccccc2C(=O)N2CCOCC2)cc1 (stereo not drawn)	8.83
O=C(Nc1cccnc1N1CCOCC1)c1cc2ccccc2oc1=O	7.52
CCOC(=O)C1CCN(S(=O)(=O)c2c(C)[nH]c(C)c2C(=O)N2CCCCC2)CC1	17.9

SMILES	hERG current change (%, negative = inhibition) at 1uM [%]
Cc1c(OC(C)C(=O)N[C@@H](Cc2ccccc2)C(=O)O)ccc2c3c(c(=O)oc12)CCCC3 (stereo partly drawn)	13
Cc1ccc(C2=C/C(=C\c3cccnc3)C(=O)O2)cc1	8.6
CC(C(=O)Nc1nc(-c2ccc(F)cc2)cs1)N1C(=O)C2CC=CCC2C1=O (stereo not drawn)	6.7
Cc1sc2ncnc(N3CCC(C(=O)Nc4nc(-c5cccs5)cs4)CC3)c2c1C	8.17
O=C(c1ccccc1Cl)N1CCN(S(=O)(=O)c2cccs2)CC1	-3.7
O=C(NN=C1CCCC1)c1n[nH]c2c1CCC2	11.8
Cc1nc([N+](=O)[O-])cn1CC(=O)Nc1ccc2c(c1)OCO2	9.75
CCNC(=S)Nc1cccc(S(=O)(=O)Nc2ccccc2OC)c1	10.9
Cc1ccccc1OCCCN1C(=O)C(=O)c2cccc(C)c21	5.87
CCOc1ccc(NC(=O)c2c[nH]n3c(=O)cc(C4CCN(C(=O)OC(C)(C)C)CC4)nc23)cc1	11.7
COc1ccc(NC(=O)CSc2nnc(Cn3cnc([N+](=O)[O-])n3)n2C)cc1	12.5
CC(Cc1nnc(N)s1)c1ccccc1 (stereo not drawn)	7.94
COCC(C)n1c(SC(C)C(=O)NC2CCCCC2C)nc2ccccc2c1=O (stereo not drawn)	12.1
Cc1ccc(Cn2nc(C)c3cc(C(=O)OCC(N)=O)sc32)cc1	8.46
O=C(NC1CCCCC1)c1ccccc1C(F)(F)F	7.56
CC(=O)c1ccc(NC(=O)CCc2nnc3ccc(N4CCCC4)nn23)cc1	10.8
CC(C)CC(=O)Nc1nnc(SCC(=O)Nc2ccc3c(c2)OCO3)s1	7.25
CCOC(=O)C1CCCN(S(=O)(=O)c2cccs2)C1 (stereo not drawn)	12.7
COc1cc(NC(=S)Nc2ccc(Br)cc2Cl)c(OC)cc1Cl	4.84
c1cn(CCCNc2ncnc3sc4c(c23)CCC4)cn1	0.846
CCn1c(=S)sc2c(=O)n(CC(=O)NCCCc3ccccc3)c(C)nc21	12.4
Cc1ccc(S(=O)(=O)N2CCN(C(=O)COC(=O)c3cccc(Cl)c3)CC2)c(C)c1	17.3
